# The list shows a part of the results.
# B1: Siglec-F (Mus musculus), Q920G3 (protein)
# chain: MRWAWLLPLLWAGCLATDGYSLSVTGSVTVQEGLCVFVACQVQYPNSKGPVFGYWFREGANIFSGSPVATNDPQRSVLKEAQGRFYLMGKENSHNCSLDIRDAQKIDTGTYFFRLDGSVKYSFQKSMLSVLVIALTEVPNIQVTSTLVSGNSTKLLCSVPWACEQGTPPIFSWMSSALTSLGHRTTLSSELNLTPRPQDNGTNLTCQVNLPGTGVTVERTQQLSVIYAPQKMTIRVSWGDDTGTKVLQSGASLQIQEGESLSLVCMADSNPPAVLSWERPTQKPFQLSTPAELQLPRAELEDQGKYICQAQNSQGAQTASVSLSIRSLLQLLGPSCSFEGQGLHCSCSSRAWPAPSLRWRLGEGVLEGNSSNGSFTVKSSSAGQWANSSLILSMEFSSNHRLSCEAWSDNRVQRATILLVSGPKVSQAGKSETSRGTVLGAIWGAGLMALLAVCLCLIFFTVKVLRKKSALKVAATKGNHLAKNPASTINSASITSSNIALGYPIQGHLNEPGSQTQKEQPPLATVPDTQKDEPELHYASLSFQGPMPPKPQNTEAMKSVYTEIKIHKC
# What was measured:
# Test in all cases: glycan array binding signal (z-score within array); higher = stronger binding
# Conditions in all cases: glycan notation: IUPAC condensed, linker removed
# [1] = target: GlcNAc(b1-2)[GlcNAc(b1-6)]Man(a1-6)[GlcNAc(b1-4)][GlcNAc(b1-2)Man(a1-3)]Man(b1-4)GlcNAc(b1-4)GlcNAc
# How it was run: (§1)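 Arrays were curated from the Consortium for Functional Glycomics database, 3228 in total, and kept only where the protein sequence was available. Binding is expressed as a within-array Z-score. This score was averaged across arrays of the same protein sequence at different concentrations or buffers and across linkers, and negative values can be read as non-binding.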
# [2] = target: GlcNAc(b1-3)Fuc
# How it was run: as §1
# [3] = target: GlcNAc(b1-3)Gal
# How it was run: as §1
# [4] = target: GlcNAc(b1-3)Gal(b1-3)GalNAc
# How it was run: as §1
# [5] = target: GlcNAc(b1-3)Gal(b1-4)Glc
# How it was run: as §1
# [6] = target: GlcNAc(b1-3)Gal(b1-4)GlcNAc
# How it was run: as §1
# [7] = target: GlcNAc(b1-3)Gal(b1-4)GlcNAc(b1-2)Man(a1-3)[GlcNAc(b1-3)Gal(b1-4)GlcNAc(b1-2)Man(a1-6)]Man(b1-4)GlcNAc(b1-4)GlcNAc
# How it was run: as §1
# [8] = target: GlcNAc(b1-3)Gal(b1-4)GlcNAc(b1-2)Man(a1-3)[GlcNAc(b1-3)Gal(b1-4)GlcNAc(b1-2)Man(a1-6)]Man(b1-4)GlcNAc(b1-4)[Fuc(a1-6)]GlcNAc
# How it was run: as §1
# [9] = target: GlcNAc(b1-3)Gal(b1-4)GlcNAc(b1-2)[GlcNAc(b1-3)Gal(b1-4)GlcNAc(b1-6)]Man(a1-6)[GlcNAc(b1-3)Gal(b1-4)GlcNAc(b1-2)Man(a1-3)]Man(b1-4)GlcNAc(b1-4)GlcNAc
# How it was run: as §1
# [10] = target: GlcNAc(b1-3)Gal(b1-4)GlcNAc(b1-3)Gal(b1-4)GlcNAc
# How it was run: as §1
# [11] = target: GlcNAc(b1-3)Gal(b1-4)GlcNAc(b1-3)Gal(b1-4)GlcNAc(b1-2)Man(a1-3)[GlcNAc(b1-3)Gal(b1-4)GlcNAc(b1-3)Gal(b1-4)GlcNAc(b1-2)Man(a1-6)]Man(b1-4)GlcNAc(b1-4)GlcNAc
# How it was run: as §1
# [12] = target: GlcNAc(b1-3)Gal(b1-4)GlcNAc(b1-3)Gal(b1-4)GlcNAc(b1-2)Man(a1-3)[GlcNAc(b1-3)Gal(b1-4)GlcNAc(b1-3)Gal(b1-4)GlcNAc(b1-2)Man(a1-6)]Man(b1-4)GlcNAc(b1-4)[Fuc(a1-6)]GlcNAc
# How it was run: as §1
# [13] = target: GlcNAc(b1-3)Gal(b1-4)GlcNAc(b1-3)Gal(b1-4)GlcNAc(b1-2)[GlcNAc(b1-3)Gal(b1-4)GlcNAc(b1-3)Gal(b1-4)GlcNAc(b1-6)]Man(a1-6)[GlcNAc(b1-3)Gal(b1-4)GlcNAc(b1-3)Gal(b1-4)GlcNAc(b1-2)Man(a1-3)]Man(b1-4)GlcNAc(b1-4)[Fuc(a1-6)]GlcNAc
# How it was run: as §1
# [14] = target: GlcNAc(b1-3)Gal(b1-4)GlcNAc(b1-3)Gal(b1-4)GlcNAc(b1-3)Gal(b1-4)GlcNAc(b1-2)Man(a1-3)[GlcNAc(b1-3)Gal(b1-4)GlcNAc(b1-3)Gal(b1-4)GlcNAc(b1-3)Gal(b1-4)GlcNAc(b1-2)Man(a1-6)]Man(b1-4)GlcNAc(b1-4)GlcNAc
# How it was run: as §1
# [15] = target: GlcNAc(b1-3)Gal(b1-4)GlcNAc(b1-3)Gal(b1-4)GlcNAc(b1-3)Gal(b1-4)GlcNAc(b1-2)Man(a1-3)[GlcNAc(b1-3)Gal(b1-4)GlcNAc(b1-3)Gal(b1-4)GlcNAc(b1-3)Gal(b1-4)GlcNAc(b1-2)Man(a1-6)]Man(b1-4)GlcNAc(b1-4)[Fuc(a1-6)]GlcNAc
# How it was run: as §1
# [16] = target: GlcNAc(b1-3)Gal(b1-4)GlcNAc(b1-3)Gal(b1-4)GlcNAc(b1-3)Gal(b1-4)GlcNAc(b1-2)[GlcNAc(b1-3)Gal(b1-4)GlcNAc(b1-3)Gal(b1-4)GlcNAc(b1-3)Gal(b1-4)GlcNAc(b1-6)]Man(a1-6)[GlcNAc(b1-3)Gal(b1-4)GlcNAc(b1-3)Gal(b1-4)GlcNAc(b1-3)Gal(b1-4)GlcNAc(b1-2)Man(a1-3)]Man(b1-4)GlcNAc(b1-4)[Fuc(a1-6)]GlcNAc
# How it was run: as §1
# [17] = target: GlcNAc(b1-3)Gal(b1-4)GlcNAc(b1-3)Gal(b1-4)GlcNAc(b1-3)Gal(b1-4)GlcNAc(b1-3)Gal(b1-4)GlcNAc(b1-2)Man(a1-3)[GlcNAc(b1-3)Gal(b1-4)GlcNAc(b1-3)Gal(b1-4)GlcNAc(b1-3)Gal(b1-4)GlcNAc(b1-3)Gal(b1-4)GlcNAc(b1-2)Man(a1-6)]Man(b1-4)GlcNAc(b1-4)GlcNAc
# How it was run: as §1
# [18] = target: GlcNAc(b1-3)Gal(b1-4)GlcNAc(b1-3)Gal(b1-4)GlcNAc(b1-3)Gal(b1-4)GlcNAc(b1-3)Gal(b1-4)GlcNAc(b1-2)Man(a1-3)[GlcNAc(b1-3)Gal(b1-4)GlcNAc(b1-3)Gal(b1-4)GlcNAc(b1-3)Gal(b1-4)GlcNAc(b1-3)Gal(b1-4)GlcNAc(b1-2)Man(a1-6)]Man(b1-4)GlcNAc(b1-4)[Fuc(a1-6)]GlcNAc
# How it was run: as §1
# [19] = target: GlcNAc(b1-3)Gal(b1-4)GlcNAc(b1-3)Gal(b1-4)GlcNAc(b1-3)Gal(b1-4)GlcNAc(b1-3)Gal(b1-4)GlcNAc(b1-2)[GlcNAc(b1-3)Gal(b1-4)GlcNAc(b1-3)Gal(b1-4)GlcNAc(b1-3)Gal(b1-4)GlcNAc(b1-3)Gal(b1-4)GlcNAc(b1-6)]Man(a1-6)[GlcNAc(b1-3)Gal(b1-4)GlcNAc(b1-3)Gal(b1-4)GlcNAc(b1-3)Gal(b1-4)GlcNAc(b1-3)Gal(b1-4)GlcNAc(b1-2)Man(a1-3)]Man(b1-4)GlcNAc(b1-4)[Fuc(a1-6)]GlcNAc
# How it was run: as §1
# [20] = target: GlcNAc(b1-3)Gal(b1-4)GlcNAc(b1-3)Gal(b1-4)GlcNAc(b1-3)GalNAc
# How it was run: as §1
# [21] = target: GlcNAc(b1-3)Gal(b1-4)GlcNAc(b1-3)GalNAc
# How it was run: as §1
# [22] = target: GlcNAc(b1-3)Gal(b1-4)GlcNAc(b1-3)[GlcNAc(b1-3)Gal(b1-4)GlcNAc(b1-3)]GalNAc
# How it was run: as §1
# [23] = target: GlcNAc(b1-3)Gal(b1-4)GlcNAc(b1-6)[Gal(b1-3)]GalNAc
# How it was run: as §1
# [24] = target: GlcNAc(b1-3)Gal(b1-4)GlcNAc(b1-6)[GlcNAc(b1-3)Gal(b1-3)]GalNAc
# How it was run: as §1
# [25] = target: GlcNAc(b1-3)Gal(b1-4)GlcNAc(b1-6)[GlcNAc(b1-3)]Gal(b1-4)GlcNAc
# How it was run: as §1
# [26] = target: GlcNAc(b1-3)GalNAc
# How it was run: as §1
# [27] = target: GlcNAc(b1-3)Man
# How it was run: as §1
# [28] = target: GlcNAc(b1-3)[GlcNAc(b1-4)][GlcNAc(b1-6)]GlcNAc
# How it was run: as §1
# [29] = target: GlcNAc(b1-3)[GlcNAc(b1-6)]Gal(b1-4)GlcNAc
# How it was run: as §1
# [30] = target: GlcNAc(b1-3)[GlcNAc(b1-6)]GalNAc
# How it was run: as §1
binder,measurement,setting,value
B1,glycan array binding signal (z-score),[1],-0.163
same,glycan array binding signal (z-score),[2],-0.135
same,glycan array binding signal (z-score),[3],-0.135
same,glycan array binding signal (z-score),[4],-0.127
same,glycan array binding signal (z-score),[5],-0.122
same,glycan array binding signal (z-score),[6],-0.118
same,glycan array binding signal (z-score),[7],-0.149
same,glycan array binding signal (z-score),[8],-0.083
same,glycan array binding signal (z-score),[9],-0.141
same,glycan array binding signal (z-score),[10],-0.126
same,glycan array binding signal (z-score),[11],-0.064
same,glycan array binding signal (z-score),[12],-0.134
same,glycan array binding signal (z-score),[13],-0.064
same,glycan array binding signal (z-score),[14],0.031
same,glycan array binding signal (z-score),[15],-0.142
same,glycan array binding signal (z-score),[16],-0.079
same,glycan array binding signal (z-score),[17],0.025
same,glycan array binding signal (z-score),[18],-0.133
same,glycan array binding signal (z-score),[19],-0.126
same,glycan array binding signal (z-score),[20],-0.143
same,glycan array binding signal (z-score),[21],-0.147
same,glycan array binding signal (z-score),[22],-0.139
same,glycan array binding signal (z-score),[23],-0.15
same,glycan array binding signal (z-score),[24],-0.163
same,glycan array binding signal (z-score),[25],-0.168
same,glycan array binding signal (z-score),[26],-0.12
same,glycan array binding signal (z-score),[27],-0.125
same,glycan array binding signal (z-score),[28],-0.117
same,glycan array binding signal (z-score),[29],-0.123
same,glycan array binding signal (z-score),[30],-0.123

# From the supplement of paper PMC8728848
